This is an account of results in PMC7138916 (Pharmacology Research & Perspectives, 2020).

SMILES strings stand for the structures.

The conditions of data set [1]: rat microdialysis; ref 8 (Chen et al); cited from earlier work.
A short description of data set [2]: Bidirectional permeability in parental MDCK cells. The format is in vitro ADME, Canine. To be noted: dog.
Data set [3] can be described thus: Rat pharmacokinetic study, IV single bolus. To be noted: male, Sprague-Dawley, in vivo.
The next data set addresses human P-gp (MDR1) (Homo sapiens, UniProt P08183). The data set can be described thus: Bidirectional permeability and efflux ratio in MDR1‐MDCK cells. The format is in vitro ADME.
A short description of data set [4]: Bidirectional permeability and efflux ratio in Caco‐2 cells. The following applies: human. The format is in vitro ADME.
Data set [5] in a line: Rat brain and blood microdialysis at steady state. To be noted: male, Sprague-Dawley, in vivo, iv, C m,brain, steady‐state unbound concentration in brain (right striatum), IV infusion, mean ± SD.

human P-gp (MDR1), sequence (P08183 whole entry): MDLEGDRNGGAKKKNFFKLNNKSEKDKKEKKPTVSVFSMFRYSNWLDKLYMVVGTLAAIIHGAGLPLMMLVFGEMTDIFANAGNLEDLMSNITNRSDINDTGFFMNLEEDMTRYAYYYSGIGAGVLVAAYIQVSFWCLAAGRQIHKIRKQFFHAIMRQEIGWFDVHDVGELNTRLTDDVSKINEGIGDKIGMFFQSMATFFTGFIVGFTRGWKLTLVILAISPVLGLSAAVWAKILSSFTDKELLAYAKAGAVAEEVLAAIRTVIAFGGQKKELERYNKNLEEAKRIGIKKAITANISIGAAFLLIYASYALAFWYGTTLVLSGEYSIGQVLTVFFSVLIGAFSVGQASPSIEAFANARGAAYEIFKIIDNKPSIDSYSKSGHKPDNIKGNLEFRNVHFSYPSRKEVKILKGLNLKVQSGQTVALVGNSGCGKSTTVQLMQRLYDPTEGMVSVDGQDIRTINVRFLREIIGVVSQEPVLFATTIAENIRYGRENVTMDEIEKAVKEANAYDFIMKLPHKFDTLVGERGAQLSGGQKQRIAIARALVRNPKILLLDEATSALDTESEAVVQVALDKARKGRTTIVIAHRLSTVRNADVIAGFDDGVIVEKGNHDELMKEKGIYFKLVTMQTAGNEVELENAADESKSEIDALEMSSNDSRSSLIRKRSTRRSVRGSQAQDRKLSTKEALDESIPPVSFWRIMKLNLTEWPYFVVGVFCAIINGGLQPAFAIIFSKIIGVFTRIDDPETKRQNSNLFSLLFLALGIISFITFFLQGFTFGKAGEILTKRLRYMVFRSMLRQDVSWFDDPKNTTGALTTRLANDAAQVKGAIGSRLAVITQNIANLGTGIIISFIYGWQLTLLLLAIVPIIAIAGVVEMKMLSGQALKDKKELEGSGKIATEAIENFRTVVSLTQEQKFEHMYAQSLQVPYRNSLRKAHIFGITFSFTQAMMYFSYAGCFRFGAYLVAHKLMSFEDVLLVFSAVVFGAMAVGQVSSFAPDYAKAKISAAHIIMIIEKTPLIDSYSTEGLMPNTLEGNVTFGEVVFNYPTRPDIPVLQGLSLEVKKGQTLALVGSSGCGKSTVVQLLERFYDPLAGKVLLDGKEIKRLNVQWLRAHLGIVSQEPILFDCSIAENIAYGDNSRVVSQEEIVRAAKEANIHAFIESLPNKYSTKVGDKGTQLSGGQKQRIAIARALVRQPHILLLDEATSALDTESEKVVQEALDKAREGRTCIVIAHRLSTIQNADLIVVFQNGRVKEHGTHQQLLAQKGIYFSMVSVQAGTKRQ

As for `CC(C)NC[C@H](O)COc1ccc(CC(N)=O)cc1` [S‐atenolol], the “K p,uu,brain” value in data set [1] is “about 0.04”.

The term Papp A→B denotes how fast a substance crosses the layer from the apical side. As a reminder, the Papp B→A is the apparent permeability from the basolateral to the apical side of a cell layer. One may read the Papp as the rate of passage across a membrane or cell layer, normalised by area and donor concentration. The term Vd denotes a proportionality between amount in the body and measured concentration, not a real space. The low end stands for little distribution into tissue, the high end for wide distribution into tissue. A word on the clearance: it is the rate of elimination divided by the concentration. The low end stands for a low capacity for elimination, the high end for a high capacity for elimination. On to `CC(C)NCC(O)COc1ccc(CC(N)=O)cc1` (stereo not shown) [Atenolol, atenolol], for which, in data set [2], the Papp A→B at 2 h, 1 μmol/L is 0.843 ± 0.67 ×10⁻⁶ cm/s; the Papp B→A at 2 h, 1 μmol/L was found to be 1.9 ± 0.43 ×10⁻⁶ cm/s; the Papp at 2 h, 1 μmol/L turned out to be 1.37 ± 0.77 ×10⁻⁶ cm/s. In data set [3], this compound showed a volume of distribution (Vd) of 2.88 ± 0.44 L/kg and a clearance of 24.5 ± 3.7 mL/min/kg. Also, on human P-gp (MDR1), the apparent permeability from apical to basolateral (Papp A→B) at 2 h, 1 μmol/L stood at 2.5 ± 2.33 ×10⁻⁶ cm/s and the apparent permeability from basolateral to apical (Papp B→A) at 2 h, 1 μmol/L turned out to be 1.04 ± 1.06 ×10⁻⁶ cm/s. Also, in data set [4], the apical-to-basolateral permeability (Papp A→B) at 2 h, 5 μmol/L stood at 0.398 ± 0.114 ×10⁻⁶ cm/s and the apparent permeability from basolateral to apical (Papp B→A) at 2 h, 5 μmol/L was found to be 0.595 ± 0.021 ×10⁻⁶ cm/s. The compound further yielded a concentration at 6 h in data set [5] of 1200 ± 430 nM.

Regarding `CC(C)(C(=O)O)c1ccc(C(O)CCCN2CCC(C(O)(c3ccccc3)c3ccccc3)CC2)cc1` (stereo not shown) [Fexofenadine], in data set [3], the Vd stood at 1.56 ± 0.38 L/kg and the clearance stood at 50.9 ± 6.1 mL/min/kg.
